Data published in publication PMC5643494, “TRPA1–FGFR2 binding event is a regulatory oncogenic driver modulated by miRNA-142-3p” (Nature Communications, 2017).

Biological target: T1, purified full-length human TRPA1 (human, UniProt O75762 1-1119, biotinylated with EDC-based carboxyl-biotinylation reagent (streptavidin pull-down); labeled with Alexafluor 488 (MST); unlabelled in the GST pull-down)
T1 construct: human TRPA1, full length; kept in PBS with 0.014% F-14; also called hTRPA1; full-length purified TRPA1; source: Pichia pastoris, purified (Ni-NTA)
T1 sequence (O75762 whole entry): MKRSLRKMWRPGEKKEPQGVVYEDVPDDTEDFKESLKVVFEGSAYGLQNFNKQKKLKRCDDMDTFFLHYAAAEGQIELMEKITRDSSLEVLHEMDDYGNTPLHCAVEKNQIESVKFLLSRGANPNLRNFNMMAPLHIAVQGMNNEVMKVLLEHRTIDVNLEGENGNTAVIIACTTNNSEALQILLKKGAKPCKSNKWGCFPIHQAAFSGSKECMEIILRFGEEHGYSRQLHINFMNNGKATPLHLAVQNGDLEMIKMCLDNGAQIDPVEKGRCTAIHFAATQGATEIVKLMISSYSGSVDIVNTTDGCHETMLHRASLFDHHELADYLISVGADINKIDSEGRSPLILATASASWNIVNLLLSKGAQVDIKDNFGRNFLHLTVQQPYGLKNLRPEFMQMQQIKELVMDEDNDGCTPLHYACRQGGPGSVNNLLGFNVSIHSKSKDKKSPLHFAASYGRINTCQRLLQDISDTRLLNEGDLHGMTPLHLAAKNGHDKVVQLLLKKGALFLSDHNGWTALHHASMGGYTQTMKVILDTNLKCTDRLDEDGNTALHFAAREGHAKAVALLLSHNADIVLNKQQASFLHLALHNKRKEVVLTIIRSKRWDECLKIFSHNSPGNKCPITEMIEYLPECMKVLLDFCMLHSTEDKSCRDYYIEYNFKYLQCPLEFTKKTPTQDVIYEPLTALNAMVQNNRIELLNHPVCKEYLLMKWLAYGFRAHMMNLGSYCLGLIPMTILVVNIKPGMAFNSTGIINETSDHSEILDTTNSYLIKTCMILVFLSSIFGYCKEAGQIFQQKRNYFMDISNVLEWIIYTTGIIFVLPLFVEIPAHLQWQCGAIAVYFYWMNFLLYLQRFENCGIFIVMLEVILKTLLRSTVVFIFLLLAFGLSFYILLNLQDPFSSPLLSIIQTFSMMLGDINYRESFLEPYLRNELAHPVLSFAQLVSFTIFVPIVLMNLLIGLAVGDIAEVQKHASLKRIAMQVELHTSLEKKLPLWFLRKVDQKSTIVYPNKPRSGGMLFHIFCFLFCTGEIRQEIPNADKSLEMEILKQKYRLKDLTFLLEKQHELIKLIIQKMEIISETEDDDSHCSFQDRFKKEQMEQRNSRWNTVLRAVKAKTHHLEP
Experiment: MST; Alexafluor 488-labeled TRPA1 or ΔN at constant 83 nM, purified FGFR2 titrated 1:1; PBS with 0.014% F-14; NanoTemper NT.115; apparent
Settings: both partners purified

B1: purified full-length FGFR2 (receptor)
chain: not shown
notes: FGFR2, customized purified full-length protein from OriGene; also called F2; full-length purified FGFR2; source: bought: OriGene (customized purified protein)
Kd: 123 ± 23.4 nM
